Results published in paper PMC9911399, “Two distinct binding modes provide the RNA-binding protein RbFox with extraordinary sequence specificity”.
Residue numbers refer to the chain shown, from its start. Some of the results follow.

T1: RBFOX1 RRM RbFoxmut (Fox-RRM*) (Homo sapiens, UniProt Q9NWB1 109-208, R118D;E147R;N151S;E152T)
T1 sequence: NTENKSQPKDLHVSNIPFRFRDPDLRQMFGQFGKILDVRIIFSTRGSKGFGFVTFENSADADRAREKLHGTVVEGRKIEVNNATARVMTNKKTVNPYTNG

B1: GGUAACG (DNA:RNA)
RNA: GGGAGACCGGAAUUCAGAUUGUCCGGUAACGUUAAAUCCCGUCGUAGCCACCA
DNA 1: CAATCTGAATTCCGGTCTCCC
DNA 2: TGGTGGCTACGACGGGATT
B2: CCGCUAC (DNA:RNA)
RNA: GGGAGACCGGAAUUCAGAUUGUCCCCGCUACUUAAAUCCCGUCGUAGCCACCA
DNA 1: CAATCTGAATTCCGGTCTCCC
DNA 2: TGGTGGCTACGACGGGATT
B3: CGCUACG (DNA:RNA)
RNA: B1 RNA with G25C, U27C, A28U
DNA 1: CAATCTGAATTCCGGTCTCCC
DNA 2: TGGTGGCTACGACGGGATT
B4: UGACACC (DNA:RNA)
RNA: B1 RNA with G25U, U27A, A28C, G31C
DNA 1: CAATCTGAATTCCGGTCTCCC
DNA 2: TGGTGGCTACGACGGGATT
B5: CACGUAC (DNA:RNA)
RNA: B2 RNA with C26A, G27C, C28G
DNA 1: CAATCTGAATTCCGGTCTCCC
DNA 2: TGGTGGCTACGACGGGATT
B6: UUACAGC (DNA:RNA)
RNA: B2 RNA with C25U, C26U, G27A, U29A, A30G
DNA 1: CAATCTGAATTCCGGTCTCCC
DNA 2: TGGTGGCTACGACGGGATT
B7: UUCGGGU (DNA:RNA)
RNA: GGGAGACCGGAAUUCAGAUUGUCCUUCGGGUUUAAAUCCCGUCGUAGCCACCA
DNA 1: CAATCTGAATTCCGGTCTCCC
DNA 2: TGGTGGCTACGACGGGATT
B8: GUCCGCU (DNA:RNA)
RNA: B7 RNA with U25G, G28C, G30C
DNA 1: CAATCTGAATTCCGGTCTCCC
DNA 2: TGGTGGCTACGACGGGATT
B9: AGGGUGU (DNA:RNA)
RNA: B7 RNA with U25A, U26G, C27G, G29U
DNA 1: CAATCTGAATTCCGGTCTCCC
DNA 2: TGGTGGCTACGACGGGATT
B10: CGCUUGG (DNA:RNA)
RNA: B2 RNA with C26G, G27C, C28U, A30G, C31G
DNA 1: CAATCTGAATTCCGGTCTCCC
DNA 2: TGGTGGCTACGACGGGATT
B11: UCCAUAC (DNA:RNA)
RNA: B2 RNA with C25U, G27C, C28A
DNA 1: CAATCTGAATTCCGGTCTCCC
DNA 2: TGGTGGCTACGACGGGATT
B12: UACGACG (DNA:RNA)
RNA: B1 RNA with G25U, G26A, U27C, A28G
DNA 1: CAATCTGAATTCCGGTCTCCC
DNA 2: TGGTGGCTACGACGGGATT
B13: AUCACGC (DNA:RNA)
RNA: B7 RNA with U25A, G28A, G29C, U31C
DNA 1: CAATCTGAATTCCGGTCTCCC
DNA 2: TGGTGGCTACGACGGGATT
B14: ACCAGUU (DNA:RNA)
RNA: B7 RNA with U25A, U26C, G28A, G30U
DNA 1: CAATCTGAATTCCGGTCTCCC
DNA 2: TGGTGGCTACGACGGGATT
B15: AGGGAUG (DNA:RNA)
RNA: B1 RNA with G25A, U27G, A28G, C30U
DNA 1: CAATCTGAATTCCGGTCTCCC
DNA 2: TGGTGGCTACGACGGGATT
B16: CGGUCCC (DNA:RNA)
RNA: B2 RNA with C26G, C28U, U29C, A30C
DNA 1: CAATCTGAATTCCGGTCTCCC
DNA 2: TGGTGGCTACGACGGGATT
B17: AGCGGAC (DNA:RNA)
RNA: B7 RNA with U25A, U26G, G30A, U31C
DNA 1: CAATCTGAATTCCGGTCTCCC
DNA 2: TGGTGGCTACGACGGGATT
B18: CAGCGUC (DNA:RNA)
RNA: B2 RNA with C26A, U29G, A30U
DNA 1: CAATCTGAATTCCGGTCTCCC
DNA 2: TGGTGGCTACGACGGGATT
B19: CGAGUUG (DNA:RNA)
RNA: B2 RNA with C26G, G27A, C28G, A30U, C31G
DNA 1: CAATCTGAATTCCGGTCTCCC
DNA 2: TGGTGGCTACGACGGGATT
B20: GCGGAAA (DNA:RNA)
RNA: B2 RNA with C25G, C28G, U29A, C31A
DNA 1: CAATCTGAATTCCGGTCTCCC
DNA 2: TGGTGGCTACGACGGGATT
B21: GAACCCA (DNA:RNA)
RNA: B1 RNA with G26A, U27A, A28C, A29C, G31A
DNA 1: CAATCTGAATTCCGGTCTCCC
DNA 2: TGGTGGCTACGACGGGATT
B22: ACGCCAA (DNA:RNA)
RNA: B2 RNA with C25A, U29C, C31A
DNA 1: CAATCTGAATTCCGGTCTCCC
DNA 2: TGGTGGCTACGACGGGATT
B23: GUCGUCC (DNA:RNA)
RNA: B7 RNA with U25G, G29U, G30C, U31C
DNA 1: CAATCTGAATTCCGGTCTCCC
DNA 2: TGGTGGCTACGACGGGATT
B24: UGCGAGU (DNA:RNA)
RNA: B7 RNA with U26G, G29A
DNA 1: CAATCTGAATTCCGGTCTCCC
DNA 2: TGGTGGCTACGACGGGATT
B25: UACGACA (DNA:RNA)
RNA: B7 RNA with U26A, G29A, G30C, U31A
DNA 1: CAATCTGAATTCCGGTCTCCC
DNA 2: TGGTGGCTACGACGGGATT
B26: GAGUGAC (DNA:RNA)
RNA: B2 RNA with C25G, C26A, C28U, U29G
DNA 1: CAATCTGAATTCCGGTCTCCC
DNA 2: TGGTGGCTACGACGGGATT
B27: AGGUCAU (DNA:RNA)
RNA: B2 RNA with C25A, C26G, C28U, U29C, C31U
DNA 1: CAATCTGAATTCCGGTCTCCC
DNA 2: TGGTGGCTACGACGGGATT
B28: CGGUAGC (DNA:RNA)
RNA: B2 RNA with C26G, C28U, U29A, A30G
DNA 1: CAATCTGAATTCCGGTCTCCC
DNA 2: TGGTGGCTACGACGGGATT
B29: GGAUGAU (DNA:RNA)
RNA: B1 RNA with U27A, A28U, A29G, C30A, G31U
DNA 1: CAATCTGAATTCCGGTCTCCC
DNA 2: TGGTGGCTACGACGGGATT
B30: GACUACG (DNA:RNA)
RNA: B1 RNA with G26A, U27C, A28U
DNA 1: CAATCTGAATTCCGGTCTCCC
DNA 2: TGGTGGCTACGACGGGATT
B31: GUCGUCG (DNA:RNA)
RNA: B1 RNA with G26U, U27C, A28G, A29U
DNA 1: CAATCTGAATTCCGGTCTCCC
DNA 2: TGGTGGCTACGACGGGATT

biological target: T1, RBFOX1 RRM RbFoxmut (Fox-RRM*); assay: EMSA; HiTS-Eq, 1 nM pool, 10 min; buffer printed only for the single-RNA assays: 10 mM Tris pH 7.5, 150 mM NaCl, 3.4 mM EDTA, 0.001% NP-40, 30 C; conditions: tags: His6 N-terminal (pET28a); label: 5' 32P
Method in brief: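 Purified RbFox RRM, wild type or mutant, was incubated for 10 min in 50 µL with 1 nM of a 5′-radiolabelled RNA pool carrying 7 randomized nucleotides, whose flanks were annealed to DNA oligonucleotides, over a series of increasing protein concentrations. Unbound RNA was resolved on 8% native PAGE, cut out, reverse-transcribed, barcoded by PCR and sequenced on an Illumina HiSeq 2500. Relative association constants were derived from changes in read counts for each RNA species versus the control reaction and normalised to the cognate motif.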

Row | Binder | binding signal
1 | B1 | 0.11 KA relative to UGCAUGU
2 | B2 | 0.129 KA relative to UGCAUGU
3 | B3 | 0.0851 KA relative to UGCAUGU
4 | B4 | 0.0695 KA relative to UGCAUGU
5 | B5 | 0.122 KA relative to UGCAUGU
6 | B6 | 0.0688 KA relative to UGCAUGU
7 | B7 | 0.0661 KA relative to UGCAUGU
8 | B8 | 0.11 KA relative to UGCAUGU
9 | B9 | 0.174 KA relative to UGCAUGU
10 | B10 | 0.145 KA relative to UGCAUGU
11 | B11 | 0.101 KA relative to UGCAUGU
12 | B12 | 0.106 KA relative to UGCAUGU
13 | B13 | 0.102 KA relative to UGCAUGU
14 | B14 | 0.0728 KA relative to UGCAUGU
15 | B15 | 0.476 KA relative to UGCAUGU
16 | B16 | 0.059 KA relative to UGCAUGU

Row | Binder | binding signal
17 | B17 | 0.0724 KA relative to UGCAUGU
18 | B18 | 0.126 KA relative to UGCAUGU
19 | B19 | 0.114 KA relative to UGCAUGU
20 | B20 | 0.0932 KA relative to UGCAUGU
21 | B21 | 0.0628 KA relative to UGCAUGU
22 | B22 | 0.0795 KA relative to UGCAUGU
23 | B23 | 0.102 KA relative to UGCAUGU
24 | B24 | 0.153 KA relative to UGCAUGU
25 | B25 | 0.0569 KA relative to UGCAUGU
26 | B26 | 0.0683 KA relative to UGCAUGU
27 | B27 | 0.0811 KA relative to UGCAUGU
28 | B28 | 0.0916 KA relative to UGCAUGU
29 | B29 | 0.208 KA relative to UGCAUGU
30 | B30 | 0.119 KA relative to UGCAUGU
31 | B31 | 0.15 KA relative to UGCAUGU
